Data taken from the supplement of paper PMC4166925.
± gives the standard deviation of the averaged measurements. Over roughly 33,000 sequences, “E-score (dimensionless, -0.5 to 0.5)” has its median near -0.046; the highest 2% begin near 0.36. This is one part of the list.

What follows are sequences tested on T1, SpTbr T-box DNA-binding domain (GST fusion) (assay: PBM E-score of 8-mer (E-score (dimensionless, -0.5 to 0.5)); Tbr is Tbrain of the sea star Patiria miniata (Pm) or the sea urchin Strongylocentrotus purpuratus (Sp); higher = stronger binding preference; most listed sequences are background and not binding sites). Settings: the construct has about 5 more residues each side.
T1 sequence: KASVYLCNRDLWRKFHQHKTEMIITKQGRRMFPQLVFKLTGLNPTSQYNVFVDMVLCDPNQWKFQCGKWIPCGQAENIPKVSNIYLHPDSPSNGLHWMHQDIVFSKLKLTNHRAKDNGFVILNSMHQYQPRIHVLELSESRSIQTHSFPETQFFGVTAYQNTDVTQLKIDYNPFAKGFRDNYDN
Method in brief: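 Using the Universal PBM Analysis Suite, every ungapped 8-mer received an enrichment E-score averaged over duplicate arrays. Probe intensities came from double-stranded Universal Agilent oligonucleotide arrays incubated with 200 nM GST-fused Tbr T-box DNA-binding domain in PBS (pH 7.5). That protein was expressed in BL21 E. coli at 20 °C and purified by glutathione affinity chromatography.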

Sequence	PBM E-score of 8-mer
CGAATTTC	0.0232 ± 0.088
CACCTCCG	0.4516 ± 0.0039
ATCTAGCG	0.0233 ± 0.056
CCTTTGGC	0.0256 ± 0.0067
CACGACAC	0.276 ± 0.033
CCACAAGA	8e-05 ± 0.012
CCGGCGGC	-0.0887 ± 0.055
ATAGCATG	-0.0688 ± 0.022
GGATAAAA	-0.201 ± 0.0081
AGACACAC	0.233 ± 0.011
CGAACCCC	-0.048 ± 0.073
ATGTTGTC	0.236 ± 0.046
AGGTGCGC	0.3101 ± 0.0015
CCAACGAA	-0.0449 ± 0.018
CTGAACCC	-0.1951 ± 0.00092
AAGTAACC	-0.0857 ± 0.11
GCGACAAC	0.369 ± 0.007
GTACTCCA	-0.205 ± 0.093
GAATTCTA	-0.289 ± 0.039
GAAGTTCC	-0.206 ± 0.053
TAGACCGA	-0.124 ± 0.012
CCTCATTC	0.0262 ± 0.016
GCCTAATA	-0.199 ± 0.023
ATGCGTCA	0.229 ± 0.014
ATCGTATG	0.0651 ± 0.053

Sequence	PBM E-score of 8-mer
CTATAAAA	-0.183 ± 0.16
AGTGGGAT	0.00508 ± 0.037
CCTTCCCA	-0.193 ± 0.045
AAGACCCA	-0.179 ± 0.0091
CTAATACA	-0.0313 ± 0.019
AAATAACA	0.105 ± 0.097
GCACACGC	0.171 ± 0.051
CCAGAAGC	-0.0847 ± 0.077
TAATCTAA	-0.179 ± 0.017
GATACGGC	-0.203 ± 0.013
GCCAAGCA	-0.111 ± 0.026
ATAGCCCC	-0.0453 ± 0.025
CCATCAAA	-0.133 ± 0.063
CAGATCAA	-0.17 ± 0.0024
GTATCATA	-0.107 ± 0.026
ACGTCAGA	0.141 ± 0.023
CGGTGAAG	-0.0826 ± 0.034
AAGCCTTC	-0.0111 ± 0.0084
CTGGACTC	-0.177 ± 0.015
ACGAGCAC	-0.101 ± 0.069
ACCTTCAA	-0.0237 ± 0.028
CCATCTCA	0.00728 ± 0.00059
CAAGTCGC	0.253 ± 0.031
AGAAATTG	-0.0311 ± 0.051
CTACTCTC	-0.1 ± 0.0084

Sequence	PBM E-score of 8-mer
CCATCGCA	0.0592 ± 0.064
GGCCTATA	-0.289 ± 0.0084
AATTTTAG	0.051 ± 0.11
AGTGCGGC	0.162 ± 0.028
ATACGCTC	-0.267 ± 0.042
CGTTGGTC	-0.052 ± 0.051
CCTTTCGC	0.283 ± 0.029
CACCGTAG	-0.0705 ± 0.065
ACTCCTAT	-0.0795 ± 0.043
CGCCCGCG	0.125 ± 0.043
CGGGTACA	0.042 ± 0.056
TATCATGA	-0.0943 ± 0.0042
GACCCGAC	0.0333 ± 0.051
ACCTTATA	0.168 ± 0.0061
CCAAACGG	-0.0822 ± 0.037
ACCTAGAA	-0.0152 ± 0.079
ATTTATAC	-0.167 ± 0.015
AATTGGCC	-0.0613 ± 0.078
GCCTTCCA	-0.108 ± 0.03
CGCAGGTA	0.112 ± 0.055
AGCCGGAC	-0.209 ± 0.008
GGGGAGAA	-0.198 ± 0.028
CGCCCCCC	-0.233 ± 0.038
CGTTACTC	-0.0953 ± 0.0024
CCGGTTAA	-0.0665 ± 0.0056

Sequence	PBM E-score of 8-mer
GTAAAGTA	-0.127 ± 0.051
CAAGTGTC	0.351 ± 0.012
AACCAGAG	-0.0943 ± 0.0014
CCAATGTA	-0.0798 ± 0.034
GCACGACC	-0.179 ± 0.015
ATTCCCTC	-0.193 ± 0.027
AAGCGGGT	0.216 ± 0.0078
CCTTAAGA	-0.147 ± 0.046
GAACAGAA	-0.147 ± 0.049
ATATAGAG	-0.0994 ± 0.018
ACCTCCTA	0.111 ± 0.063
CAGAATCG	-0.0731 ± 0.034
AGTTGGAT	-0.188 ± 0.013
CGACATAC	-0.0372 ± 0.058
GCAGGATA	-0.167 ± 0.1
AGTTACAC	0.233 ± 0.03
GACGGCAC	0.0298 ± 0.048
ACGTATCG	0.0188 ± 0.013
AGCGAGAA	0.262 ± 0.013
TCAACAGA	-0.139 ± 0.031
CGCAGTGC	0.0855 ± 0.039
ACGTGCTC	-0.0289 ± 0.052
CAGAAGCA	-0.19 ± 0.037
ACGGCTCA	-0.0392 ± 0.022
ATACTAAC	-0.0964 ± 0.029

Sequence	PBM E-score of 8-mer
CCCGGGCG	0.0721 ± 0.01
ACGTACTG	-0.109 ± 0.093
CACGTAGG	0.0681 ± 0.018
CGGAATTC	-0.231 ± 0.021
ACCGTGCC	0.0053 ± 0.0095
CTTATTAC	-0.0668 ± 0.034
ACCTACTG	0.0642 ± 0.017
CTGCGAGA	0.185 ± 0.0098
GATCACCC	0.0102 ± 0.021
ACTGCTGG	-0.168 ± 0.017
CGTGCACC	0.0746 ± 0.014
ACAATTCA	0.163 ± 0.069
TCCTGTAA	-0.138 ± 0.015
ACACCTGC	0.4527 ± 0.0032
ATGTATTC	-0.254 ± 0.091
CTCGGCCA	-0.164 ± 0.035
ACGAGTAA	0.0275 ± 0.051
GCTCAGTA	-0.162 ± 0.0083
ATACAGCG	0.133 ± 0.0018
CTTATAAC	-0.0308 ± 0.017
AAAGTTTG	-0.114 ± 0.061
CTACCCAC	-0.158 ± 0.17
ATAGGCAT	-0.2399 ± 0.0023
CTGTCAAA	0.249 ± 0.057
GTCACACA	0.409 ± 0.03

Sequence	PBM E-score of 8-mer
ACTACTAT	-0.169 ± 0.051
GATGGCGC	0.105 ± 0.048
CGTGGATC	-0.182 ± 0.078
ACGTAAGA	-0.315 ± 0.025
TAATTCAA	-0.248 ± 0.0075
GACTCGAA	-0.0599 ± 0.11
GCGAGTCC	0.0449 ± 0.033
CTGTCGCC	0.284 ± 0.035
ATCGGGCC	-0.225 ± 0.024
GAGCTCTA	-0.34 ± 0.0046
CGCCTGGA	0.1 ± 0.088
AATCAACA	0.183 ± 0.027
CTTGAGCC	0.0106 ± 0.00092
ATCAACAC	0.358 ± 0.021
CTTCATAC	-0.16 ± 0.042
ACATCTAG	-0.0547 ± 0.053
TCTAGACA	-0.211 ± 0.0084
CCGTGCGA	0.293 ± 0.012
CTGAAAGA	-0.276 ± 0.023
AGTGGAAA	0.151 ± 0.025
AAGCAGAC	-0.0605 ± 0.038
GGCAATAC	-0.18 ± 0.041
CGAGACCG	-0.0772 ± 0.057
GCCTTCGA	-0.0366 ± 0.023
ACCATGGC	-0.0735 ± 0.0022

Sequence	PBM E-score of 8-mer
AAAAGATA	-0.0313 ± 0.063
CCATCCCG	-0.168 ± 0.041
CTTATCCA	-0.0477 ± 0.044
AACTCCTG	0.0427 ± 0.043
AACCGATA	-0.0484 ± 0.055
TATCTCAA	-0.0883 ± 0.013
GATTTGCA	0.122 ± 0.067
ACACCGTG	0.347 ± 0.011
AATGGCGA	0.157 ± 0.012
CCGGTTGC	-0.129 ± 0.012
GTGCTTTA	-0.0201 ± 0.034
CACACATG	0.383 ± 0.021
GAGAGCGA	0.107 ± 0.013
CCTTTGCC	-0.146 ± 0.027
AATTCGTA	-0.11 ± 0.0012
CGTTGCAG	-0.0104 ± 0.004
ACATTAGA	-0.00549 ± 0.043
CCTAATAG	-0.206 ± 0.063
GGCTTGAA	-0.057 ± 0.044
CCAACCCG	-0.00966 ± 0.063
CCTAGCTC	-0.153 ± 0.011
TAATCGAA	-0.19 ± 0.088
